This note sets out measurements from PMC6212790.

Some of the results follow. At the low end of the ranking, values are background and their order means little.

This assay has as its target T1, GST-Rok (full length) (UniProt O34857).
T1 sequence: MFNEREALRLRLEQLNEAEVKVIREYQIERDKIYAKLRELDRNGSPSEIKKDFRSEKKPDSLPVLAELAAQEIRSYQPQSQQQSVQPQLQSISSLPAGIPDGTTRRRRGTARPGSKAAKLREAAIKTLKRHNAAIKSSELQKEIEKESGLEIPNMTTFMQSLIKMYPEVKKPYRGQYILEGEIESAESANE
As to the kind of experiment: protein binding microarray.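 Note: rank score from −0.5 (least bound) to 0.5 (best bound).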 Conditions: Rok is a gene silencer of Bacillus subtilis; high values mean tight binding; most listed sequences are background and not binding sites; double strand, one strand shown.
In the case of GAAGATGA, the binding signal stood at 0.000716 E-score. The figure for AGGTCAAG is -0.0383 E-score; for GTCGGGGA it is -0.158 E-score. The figure for ACGGTGAT is 0.0851 E-score; for GGGCAGCA it is -0.184 E-score; for TCCTAAGA it is -0.179 E-score. As to CGAACGGA, the binding signal was -0.0292 E-score. In the case of CGCTCACC, the binding signal was -0.114 E-score. On to CGGATTTA, for which the binding signal stood at 0.0424 E-score. AGAAACCA: the binding signal is 0.0962 E-score. Consider CACCCCTC, for which the binding signal was -0.399 E-score. The figure for ATGCCATG is -0.171 E-score; for CAAAGAGC it is -0.308 E-score. The figure for AGCGTAAG is -0.0616 E-score; for ACAACGTA it is 0.204 E-score.

Sequence GAGGGCTA yielded a binding signal of -0.258 E-score.

With CGTTGCAC, the binding signal is -0.17 E-score. The figure for TATTAAAA is 0.204 E-score; for CACCCCAG it is -0.385 E-score; for GTCTAACA it is -0.0578 E-score. The figure for AGTTTCAC is 0.181 E-score; for CATGACCG it is -0.155 E-score. As for GACAGTGA, the binding signal was -0.0714 E-score. CACCGTAG returned a binding signal of -0.239 E-score.

With CGTGGCCC, the binding signal is -0.267 E-score. The figure for ACGTGATA is 0.264 E-score; for ATATTGTG it is 0.172 E-score. Turning to CGGAGAAC, the binding signal was -0.0682 E-score. The figure for AGACTCAA is -0.113 E-score; for CGTTCGAA it is -0.0525 E-score. The sequence GGTCAAAA showed a binding signal of -0.0657 E-score. GCTTCTAA showed a binding signal of 0.0454 E-score. Regarding CAGGGCGC, the binding signal was -0.394 E-score. The figure for CGCAATGC is -0.0423 E-score; for AGTAACGA it is 0.142 E-score; for CGCGGGAA it is -0.124 E-score. In turn, GCAATACC displayed a binding signal of 0.148 E-score.

CGCACTGC displayed a binding signal of -0.0457 E-score.

For GAGATCCC, the binding signal was -0.23 E-score. As to CCAAATAA, the binding signal was -0.0124 E-score.

Take TAGGCGGA: the binding signal was -0.179 E-score.

On to CCGGTTGA, for which the binding signal is -0.211 E-score. As for AGCCACTA, the binding signal is -0.0386 E-score. CCCGGGAC showed a binding signal of -0.355 E-score. For the sequence ATTCGGGA, the binding signal is 0.0877 E-score. As to CCGCATCA, the binding signal was -0.161 E-score. For GCACTCGA, the binding signal is -0.0135 E-score. CGCCTGCC: the binding signal is -0.248 E-score. As for TCGTTGAA, the binding signal was found to be 0.0968 E-score. Sequence AAACAAGG returned a binding signal of 0.0361 E-score. In turn, AGCTGAAC showed a binding signal of -0.165 E-score. CGTCGCCA registered a binding signal of -0.201 E-score. In turn, AAGATCTT yielded a binding signal of 0.109 E-score.

CCCTCACC returned a binding signal of -0.28 E-score. Consider AATTTTGC, for which the binding signal is 0.234 E-score. ATATAAGC gave a binding signal of 0.186 E-score.

Take CCCATACG: the binding signal was -0.0759 E-score. In turn, ATTTAGCG displayed a binding signal of 0.215 E-score.

AGCGTACA: the binding signal worked out at 0.0297 E-score.

With GGTAATAA, the binding signal is 0.313 E-score. For the sequence AAAAAGTC, the binding signal was -0.0671 E-score. AGCGATAC had a binding signal of 0.0328 E-score. The figure for GCTAGCAA is 0.229 E-score; for GCGCCGAA it is -0.267 E-score.

Take TTAACAAA: the binding signal was 0.159 E-score. Turning to GCGCGCCC, the binding signal is -0.415 E-score. In turn, CGACGCGA had a binding signal of -0.322 E-score. Take AAGAAGTC: the binding signal is -0.069 E-score.

TAGGTATA registered a binding signal of 0.329 E-score. ACCGGAAA came in with a binding signal of -0.0576 E-score.

GCACCACA showed a binding signal of -0.0102 E-score. As for AAAAAAAA, the binding signal is 0.0401 E-score. On to CTGCTGGA, for which the binding signal is -0.212 E-score. GCTATCAC displayed a binding signal of 0.244 E-score. Turning to ATGTGGGC, the binding signal was -0.354 E-score. The figure for GAGAGGTA is 0.0254 E-score. In turn, CCTGGCTA had a binding signal of -0.178 E-score.

ACCTCTTA showed a binding signal of 0.122 E-score.

Take AATACGCA: the binding signal amounted to 0.208 E-score.

As to AGGTCATC, the binding signal is -0.0948 E-score. Consider ACGTTGAC, for which the binding signal was -0.0959 E-score.

On to CAAATAAC, for which the binding signal came out at 0.172 E-score.

With AAGGACTA, the binding signal came to 0.0751 E-score. As to CCGTTAAC, the binding signal was -0.0454 E-score. Consider ACCGGTGA, for which the binding signal is -0.144 E-score. The figure for ATACCAAC is 0.256 E-score; for GTTTTACA it is 0.203 E-score. The figure for AGGGTCAA is -0.134 E-score. ATCATGCA gave a binding signal of -0.000789 E-score. The sequence GTAAAAAC yielded a binding signal of 0.289 E-score. Regarding ACCATCGT, the binding signal was -0.0168 E-score. Sequence TCACGCAA came in with a binding signal of -0.104 E-score. CACGCGAG came in with a binding signal of 0.0325 E-score.

On to CAGCTCTA, for which the binding signal was -0.0716 E-score. The figure for TGGCTGAA is -0.0265 E-score. The sequence CACTTCTA registered a binding signal of 0.193 E-score. The figure for CGAAGGCC is -0.277 E-score. Regarding ATCTTAGC, the binding signal was determined as 0.144 E-score. The figure for ACCCTCGA is 0.0287 E-score. Regarding CATTCACA, the binding signal is -0.0251 E-score.

On to AACTCTGA, for which the binding signal worked out at 0.0339 E-score. For the sequence AGCGAATG, the binding signal was -0.0752 E-score. The figure for CGGCGGCC is -0.286 E-score; for ACTGGCTA it is -0.0799 E-score. CGCAGCCC had a binding signal of -0.35 E-score.

With CGAGTTGC, the binding signal was 0.203 E-score. Take CTGACTCC: the binding signal is -0.234 E-score. In the case of AGCTAACT, the binding signal was determined as 0.0661 E-score.

Sequence TAAATAAA yielded a binding signal of 0.231 E-score. Turning to CCTGTACG, the binding signal was -0.115 E-score. The sequence ACTAACAC registered a binding signal of 0.00622 E-score. ACAGAGCA had a binding signal of -0.0211 E-score. ATACGCCC returned a binding signal of -0.195 E-score. AAAATCCA showed a binding signal of 0.25 E-score. In the case of GCCAACTA, the binding signal turned out to be 0.118 E-score. Sequence ACTTATTC had a binding signal of 0.106 E-score. The figure for CCGTGCGA is -0.202 E-score; for CTGTTCTC it is -0.105 E-score; for ATATGTAC it is 0.345 E-score. In the case of CAGGTACA, the binding signal came to 0.079 E-score. In the case of CATTTCGG, the binding signal is 0.0631 E-score. In turn, GCTCGCCC yielded a binding signal of -0.38 E-score.

In the case of AGCCCTTG, the binding signal was -0.338 E-score. With AACATCGC, the binding signal came out at 0.00195 E-score.

Regarding GGATTGGA, the binding signal is -0.136 E-score. The sequence TAACTAGA yielded a binding signal of 0.224 E-score. AAACCTAA returned a binding signal of 0.124 E-score.

As to CCCGGAGC, the binding signal was -0.215 E-score. On to ACGGGTCG, for which the binding signal is -0.242 E-score. The figure for CACTAGTG is 0.0643 E-score; for CAGATTGG it is -0.0567 E-score; for AGTCCCGG it is -0.212 E-score. CGGCGACG returned a binding signal of -0.126 E-score. With CTATTATA, the binding signal stood at 0.366 E-score. The figure for CACCGGGG is -0.393 E-score. For the sequence AATGTCGC, the binding signal is 0.000504 E-score. On to GCACACCC, for which the binding signal is -0.41 E-score. For ATCATGCG, the binding signal is -0.0974 E-score. The figure for GCTTTTAA is -0.132 E-score; for ACACGTTC it is 0.0945 E-score. Sequence AACCTGGG displayed a binding signal of -0.315 E-score. The figure for GTATTCGA is 0.115 E-score. The figure for AACCCGTG is -0.268 E-score; for TCATGTCA it is 0.0783 E-score; for CCTGCCTA it is -0.00201 E-score. For CGACTGGC, the binding signal was -0.246 E-score. Turning to CACGCGCG, the binding signal was -0.0875 E-score. On to AATGTAAA, for which the binding signal is 0.299 E-score.

The sequence CAGCTTAA displayed a binding signal of -0.0947 E-score.

Sequence ACAGCTGG came in with a binding signal of -0.106 E-score. For the sequence GACAGGAA, the binding signal is -0.211 E-score. Consider CAGGACAC, for which the binding signal is -0.155 E-score.

Turning to AAGTAACA, the binding signal was 0.207 E-score.

Consider GAGTTTTA, for which the binding signal came to 0.203 E-score.

As for CCCCCATC, the binding signal is -0.401 E-score. For the sequence CATTTAAC, the binding signal was determined as 0.045 E-score. In turn, GCTAGGTA came in with a binding signal of 0.284 E-score. As for ATCAGTCG, the binding signal is 0.0426 E-score. The sequence AATGGGCA showed a binding signal of -0.155 E-score.

ACGCGCAG registered a binding signal of -0.244 E-score. Take CGGTCGTC: the binding signal is -0.108 E-score. On to CGTATAAG, for which the binding signal turned out to be 0.102 E-score.

Turning to GGGCAACA, the binding signal was -0.254 E-score. Regarding ATTGTTTC, the binding signal stood at 0.228 E-score. Regarding CCCTACAA, the binding signal is -0.0139 E-score.

In turn, CTTGTTGA yielded a binding signal of -0.187 E-score. In turn, GCACTTCA registered a binding signal of -0.15 E-score. CATACGAC registered a binding signal of 0.0062 E-score. As to ACCGGCGG, the binding signal was -0.218 E-score. The figure for CTCGTCGC is -0.158 E-score; for CGGTGAAA it is -0.0143 E-score. The figure for CGGCTTAA is -0.0868 E-score.
